The full ranking holds about 33,000 sequences; the median of “E-score (-0.5 to 0.5)” is about -0.012, and the highest 2% start at about 0.27. The list shows a part of the results.
target: T1, Vhr1 (UniProt P40522); test: PBM E-score (8-mer binding enrichment) (E-score (-0.5 to 0.5)); higher = stronger / more preferred TF binding; most listed sequences are background and not binding sites; settings: protein concentration: 200 nM; construct: GST-full length
T1 sequence: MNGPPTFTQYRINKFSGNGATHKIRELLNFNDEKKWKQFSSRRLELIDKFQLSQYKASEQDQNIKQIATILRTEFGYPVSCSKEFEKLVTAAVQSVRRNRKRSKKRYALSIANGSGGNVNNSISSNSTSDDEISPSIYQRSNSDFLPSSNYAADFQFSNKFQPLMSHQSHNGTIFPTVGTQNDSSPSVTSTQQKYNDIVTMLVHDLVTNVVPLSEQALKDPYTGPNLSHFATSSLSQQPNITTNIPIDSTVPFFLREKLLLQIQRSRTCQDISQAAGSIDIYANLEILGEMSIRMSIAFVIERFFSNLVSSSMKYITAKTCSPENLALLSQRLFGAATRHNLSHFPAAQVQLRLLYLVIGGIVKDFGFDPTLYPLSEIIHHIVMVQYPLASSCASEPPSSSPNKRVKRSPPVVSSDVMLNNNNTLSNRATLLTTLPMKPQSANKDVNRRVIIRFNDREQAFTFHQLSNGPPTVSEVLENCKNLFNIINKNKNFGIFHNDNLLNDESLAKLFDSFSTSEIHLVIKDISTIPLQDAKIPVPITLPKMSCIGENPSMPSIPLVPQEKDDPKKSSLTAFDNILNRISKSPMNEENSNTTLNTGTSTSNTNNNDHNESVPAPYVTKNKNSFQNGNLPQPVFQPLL
In short: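 For each ungapped eight-base word taken together with its reverse complement, the Universal PBM Analysis Suite assigned an E-score. Binding data came from GST-tagged yeast transcription factors, applied at about 100-200 nM, on universal all-10-mer Agilent arrays made double-stranded by primer extension. Fluorescent anti-GST marked bound protein, and scans were normalised with masliner.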

Sequence | PBM E-score
CTAAGCAA | -0.233
ACGAATTG | -0.174
GTTTTGCA | -0.19
AGTTTCTG | -0.0524
GAGCTTCA | -0.109
CGAACGAA | 0.0543
AGCTCTCA | -0.16
ACAAACAA | -0.0374
CTGCATCC | -0.157
ATATATTC | 0.162
CAGTCATC | 0.419
CCACCTGC | -0.0231
CCTTTCTC | -0.11
CGTACCGA | 0.0431
TAGGTCAA | 0.0181
CGTAATAG | -0.00905
ATAGTCTA | 0.0473
TCCGTCCA | 0.119
CCTAATTA | -0.252
CCCCCATC | -0.0828
GTCCTTAA | -0.00154
AATCCGGC | 0.0388
CTCATTTC | -0.101
CGTGAACA | 0.0492
AATTAGGC | -0.0883

Sequence | PBM E-score
ATATGTGC | 0.0441
ATTTGCCC | -0.0965
ACTGGTAC | 0.15
CGTCATGA | 0.267
ATACCGAG | 0.106
CATAGAGG | -0.0844
GCGGGTAA | 0.00221
AGCATTAT | 0.0302
GGCCGTAC | 0.065
ACCCGAAA | -0.0756
ACGAGGTC | 0.0874
GGGTATTA | 0.055
ATAGCGTC | -0.163
GCCACGCC | -0.214
CACTTCGA | -0.00879
CTACAGGC | -0.126
GGTTGTAC | 0.0636
CAAAAATA | -0.0959
ATGAACGC | 0.0841
GTCGAAAC | 0.0367
TCCTATAA | 0.0419
CAATAATG | -0.0412
TGAAGAAA | -0.186
GAAGACAA | -0.039
GCCTAGAA | -0.339

Sequence | PBM E-score
CTATCCGA | 0.0662
CAGACTGG | 0.0405
CCACATCC | 0.17
CCAAATCC | -0.22
ACATTTCC | 0.0349
GCGAGGGA | -0.0577
ACATGTTG | 0.116
GATTCAGC | 0.149
AGTTGCAC | 0.00832
ATGTTAGC | -0.189
ACTCAATC | 0.293
TAGTTAGA | 0.0557
CAGGTGCG | 0.051
AGTCGTGC | 0.236
AGGTCCCC | -0.186
ACTGGCTC | 0.0698
AATCAACG | 0.0373
ACGTTCGC | -0.141
AGAACGGC | 0.0802
CCATGAAC | 0.241
TATGGACA | -0.156
AATGTCCC | -0.0256
AGACCGGC | -0.0756
AATCCGAA | -0.144
GCATTTCA | -0.155

Sequence | PBM E-score
GATATGGA | 0.22
AGGTTCGG | -0.157
AGGCGACA | -0.0955
ATACATTA | 0.128
ATCCGTGG | -0.0311
AAGCTGGC | -0.163
CAGGGAAA | -0.00931
GCGACCAC | 0.0742
AGAACCGA | 0.02
GTACCCAA | 0.122
CACATCTA | 0.0134
GACTAGTC | 0.095
AGTATACC | 0.112
CAGAACCC | 0.0109
CTGCCCTC | -0.089
CCTCACAC | -0.0104
ACTACTGC | 0.0737
CGAGCTCC | -0.102
GTTCCTAA | -0.0859
CCAACTCA | 0.216
ACATTGAC | 0.0886
GCATGAGA | 0.143
GGCACAAC | -0.00416
CAAAGGTA | -0.172
TGTTCCAA | -0.0908

Sequence | PBM E-score
CCGCAGCG | 0.0402
GAACCGTA | -0.0214
GCGTAAAC | 0.0186
CTCGCTGA | -0.206
ACTTTGGC | -0.115
ACTATCGA | 0.222
ATAAAACG | 0.0395
AGGGGTGA | -0.0936
CAAACGGG | -0.0299
TACAGGAA | 0.0191
CTACCTTA | 0.0237
ATGATTCG | 0.412
GAGTTCTA | -0.247
AGCGTGAT | 0.185
GTACGTCA | -0.109
CCTTTCAC | -0.206
ATTGGCCG | -0.13
CAACGCTC | -0.0105
CAGAGGAG | -0.0542
CCTTGGCC | -0.278
GCATATTA | 0.0513
GCGTTTCC | -0.143
AGTCGTAG | 0.217
AGGCGAAG | -0.12
CCGCCCAA | 0.0168

Sequence | PBM E-score
ATTTGCAG | -0.172
GCGTTCCA | -0.169
CAGACGCC | -0.172
GCGCGGGA | 0.167
GCGCCACC | 0.02
ATTTCATC | 0.043
CAGGAATC | 0.313
TATAATGA | 0.145
AGAACCAG | -0.16
GGTTCAAA | 0.0277
ATTAAGTG | 0.00765
CGCACCAG | 0.302
CGTATCCC | -0.158
GTTTTCTA | -0.185
ATAATCCG | 0.00174
GCCCTGTA | -0.0133
AGTACTTC | 0.116
GAAAAAGA | -0.204
GCAAAAAA | -0.195
ATTCCGGA | 0.174
GCGTTACA | -0.057
ATCTGTGG | 0.0183
GCAGCAGA | -0.00414
ACACCGCG | -0.0178
CCTGTGAG | 0.106

Sequence | PBM E-score
CCTTATCA | -0.198
GAACCGGC | -0.0873
ACATTCTC | 0.0153
ACCCAGAC | 0.104
CGTGCGGA | 0.00699
AATCCGTG | -0.05
CAGGAGAA | 0.00491
GGTACACA | 0.204
CACAGATG | -0.069
CTAGGTTC | -0.0959
CAGGGCAG | 0.011
AGTATTCG | -0.0178
CAAAGTTC | -0.0789
CTTATTAA | -0.0187
TACTAACA | 0.145
CGGCGGCC | -0.142
CATTGTGC | -0.0223
GCCCATCC | 0.101
AATCGGCT | 0.0852
AAACATCG | 0.0376
CCTAAATC | 0.00215
CATAAAAA | -0.15

Source: the supplement of paper PMC3334620
